Measured values published in article PMC9911399, “Two distinct binding modes provide the RNA-binding protein RbFox with extraordinary sequence specificity”.
Positions count from the first letter of the chain named. This is one part of the list.

T1: RBFOX1 RRM RbFoxmut (Fox-RRM*) (Homo sapiens, UniProt Q9NWB1 109-208, R118D;E147R;N151S;E152T)
T1 sequence: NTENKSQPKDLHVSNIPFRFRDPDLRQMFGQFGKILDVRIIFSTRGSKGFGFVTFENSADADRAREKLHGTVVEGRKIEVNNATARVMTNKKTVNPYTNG

B1: UUCGGAC (DNA:RNA)
RNA: GGGAGACCGGAAUUCAGAUUGUCCUUCGGACUUAAAUCCCGUCGUAGCCACCA
DNA 1: CAATCTGAATTCCGGTCTCCC
DNA 2: TGGTGGCTACGACGGGATT
B2: CCUACCU (DNA:RNA)
RNA: GGGAGACCGGAAUUCAGAUUGUCCCCUACCUUUAAAUCCCGUCGUAGCCACCA
DNA 1: CAATCTGAATTCCGGTCTCCC
DNA 2: TGGTGGCTACGACGGGATT
B3: CCCGCGG (DNA:RNA)
RNA: B2 RNA with U27C, A28G, C30G, U31G
DNA 1: CAATCTGAATTCCGGTCTCCC
DNA 2: TGGTGGCTACGACGGGATT
B4: CGGCCGC (DNA:RNA)
RNA: B2 RNA with C26G, U27G, A28C, C30G, U31C
DNA 1: CAATCTGAATTCCGGTCTCCC
DNA 2: TGGTGGCTACGACGGGATT
B5: GGGAACU (DNA:RNA)
RNA: B2 RNA with C25G, C26G, U27G, C29A
DNA 1: CAATCTGAATTCCGGTCTCCC
DNA 2: TGGTGGCTACGACGGGATT
B6: AAAUCUG (DNA:RNA)
RNA: B2 RNA with C25A, C26A, U27A, A28U, C30U, U31G
DNA 1: CAATCTGAATTCCGGTCTCCC
DNA 2: TGGTGGCTACGACGGGATT
B7: AUCCAGC (DNA:RNA)
RNA: B1 RNA with U25A, G28C, G29A, A30G
DNA 1: CAATCTGAATTCCGGTCTCCC
DNA 2: TGGTGGCTACGACGGGATT
B8: CGUAUGG (DNA:RNA)
RNA: B2 RNA with C26G, C29U, C30G, U31G
DNA 1: CAATCTGAATTCCGGTCTCCC
DNA 2: TGGTGGCTACGACGGGATT
B9: CAUGUCU (DNA:RNA)
RNA: B2 RNA with C26A, A28G, C29U
DNA 1: CAATCTGAATTCCGGTCTCCC
DNA 2: TGGTGGCTACGACGGGATT
B10: GCGUUUG (DNA:RNA)
RNA: B2 RNA with C25G, U27G, A28U, C29U, C30U, U31G
DNA 1: CAATCTGAATTCCGGTCTCCC
DNA 2: TGGTGGCTACGACGGGATT
B11: CACUUGA (DNA:RNA)
RNA: B2 RNA with C26A, U27C, A28U, C29U, C30G, U31A
DNA 1: CAATCTGAATTCCGGTCTCCC
DNA 2: TGGTGGCTACGACGGGATT
B12: UGCCUAG (DNA:RNA)
RNA: B1 RNA with U26G, G28C, G29U, C31G
DNA 1: CAATCTGAATTCCGGTCTCCC
DNA 2: TGGTGGCTACGACGGGATT
B13: CCUAAAG (DNA:RNA)
RNA: B2 RNA with C29A, C30A, U31G
DNA 1: CAATCTGAATTCCGGTCTCCC
DNA 2: TGGTGGCTACGACGGGATT
B14: CCAAAGA (DNA:RNA)
RNA: B2 RNA with U27A, C29A, C30G, U31A
DNA 1: CAATCTGAATTCCGGTCTCCC
DNA 2: TGGTGGCTACGACGGGATT
B15: GUCCAUA (DNA:RNA)
RNA: B1 RNA with U25G, G28C, G29A, A30U, C31A
DNA 1: CAATCTGAATTCCGGTCTCCC
DNA 2: TGGTGGCTACGACGGGATT
B16: CCUACGG (DNA:RNA)
RNA: B2 RNA with C30G, U31G
DNA 1: CAATCTGAATTCCGGTCTCCC
DNA 2: TGGTGGCTACGACGGGATT
B17: UGUCUUG (DNA:RNA)
RNA: B2 RNA with C25U, C26G, A28C, C29U, C30U, U31G
DNA 1: CAATCTGAATTCCGGTCTCCC
DNA 2: TGGTGGCTACGACGGGATT
B18: UGCGCUU (DNA:RNA)
RNA: B1 RNA with U26G, G29C, A30U, C31U
DNA 1: CAATCTGAATTCCGGTCTCCC
DNA 2: TGGTGGCTACGACGGGATT
B19: CGGAAGG (DNA:RNA)
RNA: B2 RNA with C26G, U27G, C29A, C30G, U31G
DNA 1: CAATCTGAATTCCGGTCTCCC
DNA 2: TGGTGGCTACGACGGGATT
B20: CCUAGAG (DNA:RNA)
RNA: B2 RNA with C29G, C30A, U31G
DNA 1: CAATCTGAATTCCGGTCTCCC
DNA 2: TGGTGGCTACGACGGGATT

Target: T1, RBFOX1 RRM RbFoxmut (Fox-RRM*)
Experiment: EMSA; HiTS-Eq, 1 nM pool, 10 min; buffer printed only for the single-RNA assays: 10 mM Tris pH 7.5, 150 mM NaCl, 3.4 mM EDTA, 0.001% NP-40, 30 C
Conditions: tags: His6 N-terminal (pET28a); label: 5' 32P
In short: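 Purified RbFox RRM (wild type or mutant) was equilibrated for 10 min in 50 µL with 1 nM of a 5′-radiolabelled pool of RNA with 7 randomized nucleotides, its flanks annealed to DNA oligonucleotides, across increasing protein concentrations. Free RNA was separated by 8% native PAGE, excised, reverse-transcribed, PCR-barcoded and sequenced on an Illumina HiSeq 2500. Relative association constants came from read-count changes of each variant against the control reaction, normalised to the cognate motif.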

Row | Binder | binding signal
1 | B1 | 0.0541 KA relative to UGCAUGU
2 | B2 | 0.0689 KA relative to UGCAUGU
3 | B3 | 0.0826 KA relative to UGCAUGU
4 | B4 | 0.0688 KA relative to UGCAUGU
5 | B5 | 0.0624 KA relative to UGCAUGU
6 | B6 | 0.0533 KA relative to UGCAUGU
7 | B7 | 0.124 KA relative to UGCAUGU
8 | B8 | 0.261 KA relative to UGCAUGU
9 | B9 | 0.103 KA relative to UGCAUGU
10 | B10 | 0.403 KA relative to UGCAUGU
11 | B11 | 0.114 KA relative to UGCAUGU
12 | B12 | 0.105 KA relative to UGCAUGU
13 | B13 | 0.0905 KA relative to UGCAUGU
14 | B14 | 0.106 KA relative to UGCAUGU
15 | B15 | 0.0959 KA relative to UGCAUGU
16 | B16 | 0.094 KA relative to UGCAUGU
17 | B17 | 0.674 KA relative to UGCAUGU
18 | B18 | 0.095 KA relative to UGCAUGU
19 | B19 | 0.0742 KA relative to UGCAUGU
20 | B20 | 0.109 KA relative to UGCAUGU
